# Assay results as given in publication PMC4336329 (PLoS ONE, 2015).
# Out of some 310,000 compounds screened, about 14,000 (4.5%) showed an effect of 50% or more. Effects have a minus sign here. This is one part of the list.
# Target: human ether-à-go-go-related gene (hERG) potassium channel (human, UniProt Q12809)
# Test: primary screen, population patch clamp on CHO cells stably expressing hERG
# 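Note: peak tail current of the secondary pulse compared with the same well before compound.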
# human ether-à-go-go-related gene (hERG) potassium channel, sequence (Q12809 whole entry, looked up): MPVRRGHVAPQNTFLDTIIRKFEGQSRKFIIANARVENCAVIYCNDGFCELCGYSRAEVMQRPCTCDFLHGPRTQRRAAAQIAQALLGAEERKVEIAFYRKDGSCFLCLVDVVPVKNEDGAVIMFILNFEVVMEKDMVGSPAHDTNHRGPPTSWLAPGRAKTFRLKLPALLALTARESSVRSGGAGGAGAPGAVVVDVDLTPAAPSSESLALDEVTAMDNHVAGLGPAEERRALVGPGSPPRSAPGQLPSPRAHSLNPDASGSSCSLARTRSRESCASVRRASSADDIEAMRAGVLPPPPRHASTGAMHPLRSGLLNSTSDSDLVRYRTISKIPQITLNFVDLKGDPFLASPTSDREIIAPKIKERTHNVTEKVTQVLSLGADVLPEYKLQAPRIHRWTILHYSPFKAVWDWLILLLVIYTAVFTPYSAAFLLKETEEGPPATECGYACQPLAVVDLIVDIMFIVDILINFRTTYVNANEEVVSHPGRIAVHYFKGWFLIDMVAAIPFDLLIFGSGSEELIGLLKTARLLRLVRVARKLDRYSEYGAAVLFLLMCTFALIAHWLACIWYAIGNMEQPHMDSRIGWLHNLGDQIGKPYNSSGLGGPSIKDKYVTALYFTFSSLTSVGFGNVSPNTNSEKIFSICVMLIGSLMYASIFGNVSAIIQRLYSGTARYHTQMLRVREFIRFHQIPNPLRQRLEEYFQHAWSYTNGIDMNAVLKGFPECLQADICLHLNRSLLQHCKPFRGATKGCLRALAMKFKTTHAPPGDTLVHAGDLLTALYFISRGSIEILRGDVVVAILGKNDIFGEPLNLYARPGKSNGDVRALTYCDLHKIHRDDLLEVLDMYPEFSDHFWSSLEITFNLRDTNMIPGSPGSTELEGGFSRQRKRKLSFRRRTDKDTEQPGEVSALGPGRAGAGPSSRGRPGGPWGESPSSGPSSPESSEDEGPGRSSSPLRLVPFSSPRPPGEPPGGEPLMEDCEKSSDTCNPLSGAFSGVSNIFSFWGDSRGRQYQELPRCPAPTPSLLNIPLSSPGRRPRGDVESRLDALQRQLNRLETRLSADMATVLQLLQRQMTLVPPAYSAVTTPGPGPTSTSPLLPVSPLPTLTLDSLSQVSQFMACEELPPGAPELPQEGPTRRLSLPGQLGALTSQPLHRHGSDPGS
row,SMILES,"hERG current change (%, negative = inhibition) at 10uM"
1,Cc1cccc(C)c1NC(=O)NC1(C(=O)N2CCCCC2)CCCCC1,4.77%
2,N=c1cc(C2(O)CCCCC2)n2c(nc3ccccc32)s1,-20.7%
3,Cc1cccc(S(=O)(=O)NCCc2ccccc2)c1,-2.12%
4,CCCC(=O)NC(=S)Nc1ccc(CN2CCOCC2)cc1,25.2%
5,Cc1[nH]n(-c2ccccc2)c(=O)c1C(C[N+](=O)[O-])c1ccc(Cl)cc1 (stereo not shown),-6.43%
6,CC1(C)Cc2nc(Cl)c(C#N)cc2CO1,3.89%
7,O=S(=O)(NC1Cc2ccccc2C1)c1ccccc1,1.65%
8,CC(=O)Cn1c(N2CCC(Cc3ccccc3)CC2)nc2c1c(=O)[nH]c(=O)n2C,10.3%
9,Cc1ccc(NC(=S)N(CCCN2CCCC(C)C2)Cc2ccco2)cc1C (stereo not shown),-76.2%
10,COCCNC(=O)Cn1cc(C(=O)c2ccccc2F)c2ccccc21,12.5%
11,COc1cc2c(cc1OC)C(Nn1cnnc1)=NC1(CCCC1)C2,2.86%
12,CCCN1CCc2c(sc(NC(=O)c3ccc(S(=O)(=O)N(C)c4ccccc4)cc3)c2C(N)=O)C1,16.5%
13,Cc1cc(Nc2ccccc2)nn1C(=O)c1ccc([N+](=O)[O-])cc1,21%
14,CC(NC(=O)COc1ccc(S(=O)(=O)N2CCCC2)cc1)c1ccccc1 (stereo not shown),7.5%
15,CC1CCN(S(=O)(=O)c2ccc(NC(=O)CSc3ncccc3C(=O)O)cc2)CC1,7.31%
16,Cc1nn(-c2ccccn2)c2c1-c1nc(N)ncc1CC2,5.03%
17,O=C(Nc1cccc(F)c1)C1CCCN(S(=O)(=O)c2cnc[nH]2)C1 (stereo not shown),17.4%
18,CCOc1ccc(-c2cnc(SCC(N)=O)nc2N)cc1,4.44%
19,CCOC(=O)c1c(NC(=O)CSc2nc(C)cc(C)c2C#N)sc(C(C)=O)c1C,7.14%
20,Cc1ccc(-c2cc(N)on2)cc1,8.36%
21,O=C(CN1CCN(S(=O)(=O)/C=C/c2ccccc2)CC1)Nc1ccc(N2CCOCC2)cc1,35.9%
22,CCN(c1ccccc1)S(=O)(=O)c1ccc(N)cc1,-6.55%
23,CC(=O)N1c2ccc(S(=O)(=O)N3CCC(C(=O)Nc4cccc(C(F)(F)F)c4)CC3)cc2CC1C (stereo not shown),11.7%
24,O=C(CCNC(=O)C1CCN(S(=O)(=O)c2ccccc2)CC1)NCc1cccc(Cl)c1,-45.8%
25,CCOC(=O)N1CCC(NC(=O)CCS(=O)(=O)c2ccc3c(c2)CCN3C(=O)CC)CC1,2.77%
